# Over roughly 33,000 sequences, “E-score (-0.5 to 0.5)” has its median near -0.012; the highest 2% begin near 0.27. The list shows a part of the results.
# Biological target: T1, Vhr1 (UniProt P40522)
# T1 sequence: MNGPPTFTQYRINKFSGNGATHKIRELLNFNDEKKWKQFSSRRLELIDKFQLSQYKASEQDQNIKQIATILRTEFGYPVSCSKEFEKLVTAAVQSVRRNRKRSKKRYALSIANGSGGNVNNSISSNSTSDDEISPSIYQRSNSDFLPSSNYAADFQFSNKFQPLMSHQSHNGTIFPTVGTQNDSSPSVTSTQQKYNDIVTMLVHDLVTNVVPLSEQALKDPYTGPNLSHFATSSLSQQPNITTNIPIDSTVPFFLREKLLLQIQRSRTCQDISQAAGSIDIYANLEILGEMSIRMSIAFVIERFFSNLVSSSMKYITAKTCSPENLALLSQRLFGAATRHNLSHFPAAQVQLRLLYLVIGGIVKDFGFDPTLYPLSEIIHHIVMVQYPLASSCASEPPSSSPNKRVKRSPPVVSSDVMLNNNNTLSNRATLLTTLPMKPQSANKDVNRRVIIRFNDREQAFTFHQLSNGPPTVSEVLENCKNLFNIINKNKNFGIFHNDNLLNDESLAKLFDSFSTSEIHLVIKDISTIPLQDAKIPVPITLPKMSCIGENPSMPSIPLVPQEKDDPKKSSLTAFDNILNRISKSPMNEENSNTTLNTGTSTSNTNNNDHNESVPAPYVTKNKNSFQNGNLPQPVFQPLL
# Assay: PBM E-score (8-mer binding enrichment) (E-score (-0.5 to 0.5)); higher = stronger / more preferred TF binding; most listed sequences are background and not binding sites
# Settings: protein concentration: 200 nM; construct: GST-full length
# Procedure, shortened: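 Yeast transcription factors, full-length or as DNA-binding domains, were expressed with a GST tag using PURExpress in vitro transcription/translation. At about 100-200 nM they were applied to universal all-10-mer Agilent arrays, double-stranded by primer extension on fresh or once-stripped slides. Fluorescent anti-GST detected bound protein, and masliner normalised the scans. E-scores for ungapped eight-base words, pooled with reverse complements, came from the Universal PBM Analysis Suite.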
row,Sequence,PBM E-score
1,ATCATAAC,0.24
2,GGATCTTA,0.063
3,CTAGAAGC,-0.0479
4,CCAGTAGA,0.0303
5,TATCCCGA,0.107
6,CAGGTCTC,-0.105
7,CAAAAAGC,0.0105
8,CGCGCGGC,0.215
9,ATCTTAAC,-0.0469
10,ATTGTCCA,-0.174
11,AACAATTC,-0.0492
12,AGGTTTAG,-0.107
13,AGTATAAC,-0.154
14,CAGGGCCG,-0.0574
15,ATTGCTGC,-0.0506
16,CAACCCTC,-0.0363
17,GGTTAACA,0.118
18,CCCGGCTA,-0.104
19,CTATTAAA,-0.0212
20,CCTGGCAC,-0.193
21,AATTAGTG,0.215
22,GAATCCCA,0.111
23,TCGTTCAA,-0.0723
24,AATGGTGC,0.0267
25,AGGGGGGA,0.0123

row,Sequence,PBM E-score
1,ATTCTTCA,-0.0725
2,CACTGGGA,0.0236
3,TAGTTCCA,-0.0228
4,AATATCTG,-0.0925
5,CTGATGTC,0.0811
6,ACTGAACC,0.0556
7,AACGGCGA,0.0691
8,GGGCATCA,0.0106
9,CGGTACAC,-0.00878
10,GACTGATA,0.13
11,AGCTCCGC,-0.0601
12,AACAAGAC,0.0255
13,ACTAACGC,0.0384
14,GAGCGTCC,-0.218
15,AATGGACG,0.0574
16,AGAGTCGC,0.338
17,ACTCCTAG,-0.0528
18,ATGACACC,0.0744
19,TCGGAACA,0.041
20,GGGGCTGA,-0.0525
21,ATCGATTA,0.122
22,GCACTACA,-0.0412
23,ACGTATCT,-0.00189
24,CCAATGCC,-0.247
25,GAAACCGC,0.159

row,Sequence,PBM E-score
1,AATGTTGG,-0.0754
2,ATTTAACG,-0.165
3,AAGGGCCT,-0.174
4,CGTAGCCC,0.0557
5,AGTGTCAT,0.194
6,AAGATAAA,-0.126
7,GCTTCACC,-0.0739
8,CTCATCAG,0.312
9,AGGACCGA,0.0357
10,CAGCGTGA,0.105
11,AGGATTTA,-0.0327
12,ATGTTTAG,0.043
13,TCTCCCAA,-0.0937
14,AAGCGGTA,-0.0247
15,ACGCGAGG,-0.113
16,CCTCTATC,-0.13
17,ACTATGGC,0.163
18,AGGTTTGC,0.0194
19,GGTGCGCA,0.0828
20,ACAGATGT,0.0935
21,GCGCGCGA,0.185
22,ACTTGGAG,-0.0624
23,AGTCGACT,0.33
24,GACGAAAC,-0.0593
25,ACATTCCC,-0.00322

row,Sequence,PBM E-score
1,AGTGTGGA,-0.0588
2,ATTCGACG,0.148
3,ATACCCAC,0.176
4,TATTCAAA,-0.0062
5,CTTCGAAG,-0.178
6,GATCGTGC,0.135
7,GAAAAGCA,-0.149
8,CACCAGAC,0.309
9,AACGGTAG,-0.0451
10,GCACTGGC,-0.0876
11,ATGCTTAC,-0.0969
12,CATGCGAC,0.147
13,CAAATTTA,-0.135
14,ACTCGTCC,0.122
15,GAGCACAA,0.0362
16,CCGCCGCC,0.183
17,GCAAGCAA,-0.0657
18,AATTGGAG,0.0101
19,ATCCTCAG,0.0653
20,CGCCTCGA,0.0789
21,AACAAAGC,0.0625
22,ATCTTGTG,-0.0506
23,AAGGAAGT,0.0312
24,CATAACCG,0.0778
25,CCCCGGCC,-0.0543

row,Sequence,PBM E-score
1,CCACCGCA,0.0143
2,TACATTCA,-0.0891
3,TACAGACA,0.0619
4,GGTTTTAC,-0.214
5,CCTTCCGA,-0.0757
6,TGACGACA,0.0278
7,CCCGCGCA,0.24
8,ACGCAAAA,-0.0826
9,CCCCTACA,-0.15
10,AGTTTCAT,0.15
11,GCAGCATA,0.072
12,ACAAATCG,0.0133
13,AAGATAGG,-0.136
14,AGCATATG,0.0295
15,ATTGGGGC,-0.126
16,AAGGCCCG,-0.328
17,GCTTCTGA,-0.0878
18,AGACATGA,0.227
19,GGAACTTA,-0.231
20,AAGAGCGT,-0.129
21,ATTCACAC,0.157
22,GCTACGCA,-0.00533
23,GCGATGCC,-0.0391
24,GTGAGCAA,-0.019
25,CCTAGGAC,-0.256

row,Sequence,PBM E-score
1,GAGTCAGC,0.476
2,CCCCTCAC,0.17
3,ACAGGGAC,-0.138
4,CTCCGTGC,0.0278
5,TAAACCCA,0.112
6,CTTATCGA,0.0185
7,AGCTCCAT,-0.0874
8,GGTATATA,0.207
9,ACACTATA,0.152
10,CATGAGGC,-0.159
11,GTCTATAA,0.0361
12,ATCAACAG,0.0493
13,AGATAGAA,-0.309
14,AGCCCTAC,-0.108
15,GTGTTGCA,0.135
16,CAATAGCG,0.148
17,CTATTAAC,0.0176
18,GGGATTAA,0.0145
19,ATAAGGAA,-0.167
20,GTCATCTA,0.228
21,GACATGCC,0.0525
22,AGAAATCT,-0.217
23,CATCCGAC,0.107
24,ACAGGATG,0.184
25,ACAGGAGA,0.109

row,Sequence,PBM E-score
1,ACTCCCAG,0.136
2,TGGGAGAA,-0.0874
3,ATCAGCCG,0.0961
4,ACATCCGC,0.00591
5,AGAATTCA,-0.223
6,CTTCTGGA,-0.127
7,AGGGCCAG,-0.00285
8,TGCTTCCA,-0.349
9,ACTGCAGT,0.0933
10,GGCCTCCC,-0.0495
11,ACTCCCAT,0.208
12,ATTGACTG,0.128
13,TTATACAA,-0.065
14,ATTTTCGG,-0.111
15,CCGGGACG,-0.149
16,CATCTCCA,0.0772
17,ACGAACAT,0.0873
18,CGCTGTAA,0.0565
19,ACACATTG,0.169
20,CACCTCTA,0.0402
21,CTGTTAAC,-0.0127
22,CCTTACCA,-0.0869

# — the supplement of paper PMC3334620
